{"source": "PubChem BioAssay AID1671188", "about": "(National Center for Advancing Translational Sciences (NCATS), 2021)", "note": "Hit rate of the full screen: of about 100,000 compounds, about 250 (0.25%) were called active. The inconclusive results got no clear call from the source; some entries with a clear call stand among them for comparison. The call rests on the fitted dose curve; in most records, active means well fitted inhibition curve with a large enough effect; inconclusive means small, poorly fitted or top-dose-only effect; inactive means flat fitted curve, though single readings scatter. Potencies beside an inconclusive call are fits to weak or partial responses and may not hold up. On the % scale 0 is the no-effect control and ±100 the full control effect; potency means the concentration at half of the fitted maximal effect; tags describe the fitted curve by direction and shape.", "data": [{"target": "Alanine aminotransferase 2 (Homo sapiens) (UniProt Q8TD30)", "sequence (Q8TD30 whole entry, looked up)": "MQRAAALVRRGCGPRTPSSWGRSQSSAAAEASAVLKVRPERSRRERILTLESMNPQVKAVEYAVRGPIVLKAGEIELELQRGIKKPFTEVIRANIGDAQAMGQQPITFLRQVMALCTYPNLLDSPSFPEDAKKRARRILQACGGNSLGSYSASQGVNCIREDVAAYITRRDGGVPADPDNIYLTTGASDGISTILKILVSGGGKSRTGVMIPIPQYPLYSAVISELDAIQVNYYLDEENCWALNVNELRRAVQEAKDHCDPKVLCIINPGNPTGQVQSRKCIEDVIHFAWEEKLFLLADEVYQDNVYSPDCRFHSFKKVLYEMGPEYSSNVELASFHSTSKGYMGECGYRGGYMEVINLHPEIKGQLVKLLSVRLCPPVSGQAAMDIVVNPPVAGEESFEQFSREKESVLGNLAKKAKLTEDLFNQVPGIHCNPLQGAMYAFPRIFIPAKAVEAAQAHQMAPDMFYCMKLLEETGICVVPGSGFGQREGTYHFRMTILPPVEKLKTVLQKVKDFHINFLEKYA", "experiment": "Primary qHTS assay for inhibitors of Glutamate pyruvate transaminase 2 (GPT2); further: nearly all actives have a fitted effect of over 60% in size", "settings": "Recombinant GPT2, coupled pyruvate oxidase/HRP Amplex Red fluorescence; activity change, negative = inhibition: at 57.7 µM (top of the series) unless noted; series mostly up to 57.7 µM", "how_it_was_run": "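GPT2 10ng/uL, a-KG 250uM, L-Ala 2mM, HEPES pH7.5 + 0.0001% Tween; 30 min RT. Then Amplex mix (PO/HRP/ThPP), 30 min RT dark, fluorescence. AOA 50uM used as positive control.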", "values": [{"compound": "Cc1noc(C)c1-c1cc2c(cc(C)n2C)c(NCCN(C)C)n1", "Potency": "inconclusive: 35.5 µM [inhibitor, partial curve, poor fit]"}, {"compound": "O=C(NCCc1ccc(Cl)cc1)c1nc(-c2cccc(C(F)(F)F)c2)c2cnccn12", "Potency": "inconclusive: 6.31 µM [inhibitor, single point]"}, {"compound": "COc1ncccc1-c1nccc2c(=O)cc(-c3ccncc3)oc12", "Potency": "inconclusive: 56.2 µM [inhibitor, single point]"}, {"compound": "Cc1cc(C(F)(F)F)nc(CCNC(=O)c2ccc3ncccc3c2)n1", "Potency": "inconclusive: 0.631 µM [inhibitor, full curve, poor fit]"}, {"compound": "CC(=O)Nc1ccc(CN[C@@H]2CO[C@H](CNC(=O)NC(C)C)[C@H]2O)cc1", "Potency": "inconclusive: 12.6 µM [inhibitor, single point]"}, {"compound": "CCN1CCC2(Cc3ccccc3CN(C(=O)c3cccc(Cl)c3)C2)C1", "note": "(stereo not drawn)", "Potency": "inconclusive: 39.8 µM [inhibitor, single point]"}, {"compound": "Cn1ncc(N2CCC(NC(=O)CC(C)(C)C)CC2)cc1=O", "Potency": "inconclusive: 6.31 µM [inhibitor, single point]"}, {"compound": "C=C1CCC2C(OC(=O)C2(O)COC(C)=O)C2C(=C)C(O)CC12", "note": "(stereo not drawn)", "Potency": "inconclusive: 4.47 µM [inhibitor, single point]"}, {"compound": "COc1ccccc1N1CCN(CC(O)COc2cccc3ccccc23)CC1", "note": "(stereo not drawn)", "Potency": "inconclusive: 3.55 µM [inhibitor, full curve, poor fit]"}, {"compound": "CC(C)c1noc([C@@H]2C[C@@H](O)CN2Cc2ccc(CO)o2)n1", "Potency": "inconclusive: 17.8 µM [inhibitor, partial curve, poor fit]"}, {"compound": "Cc1ccccc1-c1cn[nH]c1C1CCN(C(=O)c2cnn3ccccc23)CC1", "activity change, negative = inhibition": "inconclusive: -31% [inhibitor] [at 11.5 µM]"}, {"compound": "COc1ccc(Cl)cc1NC(=O)Cn1c(N2CCC(C)CC2)nc(C)cc1=O", "Potency": "inactive"}, {"compound": "COCCN1CCCCC(CC(=O)Nc2ccc(OC)cc2)C1=O", "note": "(stereo not drawn)", "Potency": "inactive"}, {"compound": "O=C(Nc1ccc(Cl)cc1)N1CCN(c2nccc(Nc3ccccc3Cl)n2)CC1", "Potency": "inactive"}, {"compound": "Cc1nc2c(c(-c3ccc(Cl)cc3)n1)CCN(C(=O)N(C)C)CC2", "Potency": "inactive"}, {"compound": "COc1ccc(OC)c(CNC(=O)C2(C)CCCCC(=O)N2)c1", "note": "(stereo not drawn)", "Potency": "inactive"}, {"compound": "CS(=O)(=O)c1ccc(CN2CCCC(c3ccccc3)C2)cc1", "note": "(stereo not drawn)", "Potency": "inconclusive: 31.6 µM [inhibitor, single point]"}, {"compound": "COc1ccc(-c2noc(CN3CCN(c4ccccc4)CC3C)n2)c(OC)c1OC", "note": "(stereo not drawn)", "Potency": "inconclusive: 39.8 µM [inhibitor, single point]"}, {"compound": "CCCN(CCC)C(=O)C(CCC(=O)O)NC(=O)c1ccccc1", "note": "(stereo not drawn)", "Potency": "inconclusive: 7.08 µM [inhibitor, single point]"}, {"compound": "O=C(c1cc(-c2ccncc2)n[nH]1)N1CCC2(CC1)Nc1ccccc1NC2=O", "Potency": "inconclusive: 31.6 µM [inhibitor, partial curve]"}, {"compound": "Cc1ccc(NC(=O)N2C[C@@H](F)C[C@H]2C(=O)N2CCc3ccccc3C2)c(Cl)c1", "Potency": "inconclusive: 6.31 µM [inhibitor, single point]"}, {"compound": "Cc1cccc(-c2noc([C@@H]3C[C@@H](O)CN3Cc3ccc(Cl)cc3)n2)c1", "Potency": "inactive"}, {"compound": "COc1ccc(Cl)cc1C(=O)N1CCCN(c2cc(-c3ccc(F)cc3)[nH]n2)CC1", "Potency": "inconclusive: 39.8 µM [inhibitor, single point]"}, {"compound": "O=C(C[C@@H]1CCNC[C@@H]1Cc1cc(CSc2ccccc2)on1)NCc1ccc(F)cc1", "Potency": "inconclusive: 6.31 µM [inhibitor, single point]"}, {"compound": "COc1ccc(CN2CCCC(c3cc(=O)[nH]c(C)n3)C2)c(OC)c1C", "note": "(stereo not drawn)", "Potency": "inactive"}, {"compound": "CCn1c(-c2ccccc2)nn(CC(=O)NCCc2noc(C3CC3)n2)c1=O", "Potency": "inconclusive: 6.31 µM [inhibitor, single point]"}, {"compound": "Cc1ccc(C(=O)N2CCC3(CC(c4cccc(C(F)(F)F)c4)=NO3)C2)cc1", "note": "(stereo not drawn)", "Potency": "inconclusive: 8.91 µM [inhibitor, partial curve]"}, {"compound": "Cc1ccc(S(=O)(=O)N2CCCC(CCC(=O)O)C2)cc1", "note": "(stereo not drawn)", "Potency": "inconclusive: 7.08 µM [inhibitor, partial curve, poor fit]"}, {"compound": "O=c1ccc2ccc(O)c(O)c2o1", "Potency": "inconclusive: 12.2 µM [inhibitor, full curve, poor fit]"}, {"compound": "O=[S+]1([O-])NCC2(CCN(Cc3ccc(OC(F)(F)F)cc3)CC2)Nc2ccccc21", "Potency": "inactive"}, {"compound": "COc1cccc(NC(=O)CC2CCCN(c3cnn(CC4CC4)c(=O)c3)C2)c1", "note": "(stereo not drawn)", "Potency": "inactive"}, {"compound": "O=C(C1CCC1)N1CCC2(CC1)CC(Cc1nc(C3CC3)no1)CCO2", "note": "(stereo not drawn)", "Potency": "inactive"}, {"compound": "C[S+](=O)([O-])c1ccc(-c2cc(C(=O)NCC(F)(F)F)nn3cccc23)cc1", "Potency": "inconclusive: 6.31 µM [inhibitor, single point]"}, {"compound": "O=C(NCc1ccc(F)cc1)c1ccc2nnc(-c3ccc(F)cc3)n2c1", "Potency": "inconclusive: 39.8 µM [inhibitor, single point]"}, {"compound": "COCCn1c(C)nnc1-c1cc(-c2cccc(O)c2)ccn1", "Potency": "inconclusive: 31.6 µM [inhibitor, single point]"}, {"compound": "CC(=O)Nc1sc2c(c1-c1nc3ccccc3s1)CNC2", "Potency": "inconclusive: 3.16 µM [inhibitor, partial curve, poor fit]"}, {"compound": "COCCc1nncn1C1CCN(C(=O)c2ccc(F)c(Cl)c2)CC1", "Potency": "inactive"}, {"compound": "CC(=O)N1CCC(N2CCC[C@H]2c2nc(-c3ccnc(N4CCC(C(N)=O)CC4)c3)no2)CC1", "Potency": "inconclusive: 25.1 µM [inhibitor, partial curve, poor fit]"}, {"compound": "Cc1ccc([C@H]2C[C@@H](O)[C@@H](O)[C@@H]2N2CCCCC2)cc1", "Potency": "inconclusive: 25.1 µM [inhibitor, partial curve]"}, {"compound": "O=C1NC(=O)C(c2cnc3ccccn23)=C1c1cn2c3c(cccc13)CN(C(=O)N1CCOCC1)CC2", "Potency": "inconclusive: 15.3 µM [inhibitor, single point]"}, {"compound": "COCCN1CCC(N2CCN(C(=O)c3ccc(F)cc3)CC2)C1=O", "note": "(stereo not drawn)", "Potency": "inactive"}, {"compound": "COCCNC(=O)[C@H]1C[C@H](Oc2ccccc2)CN1C(=O)NC(C)C", "Potency": "inactive"}, {"compound": "O=C1N(CCc2ccccc2)CCOC12CCN(Cc1ccc(F)c(Cl)c1)CC2", "Potency": "inactive"}, {"compound": "COc1cc(OC)cc(C(=O)N2CCCC(n3cc(-c4nc(C5CC5)no4)nn3)C2)c1", "note": "(stereo not drawn)", "Potency": "inactive"}, {"compound": "COc1ccc(N2CCN(C(=O)CN3C(=O)NC4(CCCCC4)C3=O)CC2)cc1", "Potency": "inconclusive: 11.2 µM [inhibitor, partial curve]"}, {"compound": "Cc1cc(C(=O)N2CC(F)(F)C[C@H]2c2nnc(C)o2)on1", "Potency": "inconclusive: 3.55 µM [inhibitor, full curve, poor fit]"}, {"compound": "Cc1nonc1CC(=O)N[C@@H]1COCC[C@@H]1OCc1cscn1", "Potency": "inactive"}, {"compound": "CC(C)n1cnnc1CNC(=O)[C@H]1CNC[C@H](C(=O)N2CCOCC2)C1", "activity change, negative = inhibition": "inconclusive: -31.5% [inhibitor]"}, {"compound": "O=C(CNC(=O)c1ccc(-c2cnc3ccccc3c2)cc1)NCc1ccc(Cl)cc1", "Potency": "inactive"}, {"compound": "COc1ccc(OCc2nc(C3CN(C(=O)Cc4ccccc4F)C3)no2)cc1", "Potency": "inactive"}, {"compound": "Cn1cc(CN2CC[C@H](c3nnc(-c4cccnc4)o3)C2)c2ccccc21", "Potency": "inconclusive: 56.2 µM [inhibitor, single point]"}, {"compound": "Cc1ccc(S(=O)(=O)NC[C@H]2O[C@H](Cc3cc(-c4cccc(O)c4)on3)CC[C@@H]2O)cc1", "Potency": "inconclusive: 39.8 µM [inhibitor, single point]"}, {"compound": "Cc1ccc(OCc2nc(C3CCCCN3C(=O)CCCc3nc(-c4ccc(C)cc4)no3)no2)cc1", "note": "(stereo not drawn)", "Potency": "inactive"}, {"compound": "Cc1noc(-c2cccc(OC3CN(C(=O)NC4CCCC4)C3)c2)n1", "Potency": "inactive"}, {"compound": "Cc1cn2nnc(C(=O)NC3CCCCCCC3)c2c(=O)[nH]1", "Potency": "inactive"}, {"compound": "O=C(O)C(c1cccc2c1OCC2)N1CCCN(c2ncccn2)CC1", "note": "(stereo not drawn)", "Potency": "inconclusive: 0.708 µM [inhibitor, full curve, poor fit]"}, {"compound": "CCCNC(=O)N[C@@H]1C[C@H](Cn2cc(C3CC3)nn2)[C@@H](O)[C@H]1O", "Potency": "inconclusive: 12.6 µM [inhibitor, single point]"}, {"compound": "Cc1ccc(CNC2(Cc3cc(-c4ccccn4)on3)COC2)o1", "Potency": "inconclusive: 5.01 µM [inhibitor, partial curve, poor fit]"}, {"compound": "O=C(COc1ccc(Cl)cc1)N1CCc2nn(CC3CC3)c(=O)n2CC1", "Potency": "inconclusive: 39.8 µM [inhibitor, single point]"}, {"compound": "COc1ccc(-c2cc(N3CCC(NC(=O)CCc4ccccc4)CC3)n[nH]2)cc1", "Potency": "inconclusive: 28.2 µM [inhibitor, partial curve]"}, {"compound": "O=C(Nc1ccc(-c2ccnc(Nc3ccc(N4CCOCC4)cc3)n2)cc1)C1CCCN1", "note": "(stereo not drawn)", "Potency": "inconclusive: 17.8 µM [inhibitor, partial curve]"}, {"compound": "COc1ccccc1N1CCN(CC[C@H]2CN(C(=O)NC(C)C)CC[C@H]2CC(=O)O)CC1", "Potency": "inactive"}, {"compound": "O=C(NC1CCN(c2cc(-c3ccccc3)[nH]n2)C1)c1ccccc1Cl", "note": "(stereo not drawn)", "Potency": "inconclusive: 14.1 µM [inhibitor, partial curve]"}, {"compound": "CCC(=O)N(C1CCOCC1)C1CCN(Cc2ccc(C)cc2)CC1", "Potency": "inactive"}, {"compound": "COc1cccc(-c2nc(-c3c(C)noc3C)cc3[nH]c(C)cc23)c1OC", "Potency": "inconclusive: 2 µM [inhibitor, full curve, poor fit]"}, {"compound": "Cc1ccc(Nc2ccnc(N3CCC(NC(=O)c4ccccc4C)CC3)n2)cc1", "Potency": "inactive"}, {"compound": "CCCNC(=O)N1C[C@@H](Oc2cccnc2)C[C@@H]1C(=O)N1CCOCC1", "Potency": "inactive"}, {"compound": "COc1ccc(-c2ccccc2)cc1NS(=O)(=O)c1cc(Cl)cc(Cl)c1O", "Potency": "inconclusive: 0.355 µM [inhibitor, full curve, poor fit]"}]}]}
